# Some of the results follow.
# B1: PX9961J-bvu-499-24-499 (Bacteroides vulgatus) (protein)
# chain: LNTDPSTAVPSDDAIKNIDDAQVALNGIYRLASAHSYYGDNYLYYADCRGEDVQARINKGAGRRVSPYYFFDVTADDNFNITLVWNQPYKVIHQANSLIEKLDAGNAGNARPEEVARIKSEALAMRGLALFDLTRLFGMPYTLDNGASLGVPIEIQTTLEDHAPERNTVAQCYEQVLKDLNDALGGLTKEKHDAYMNYWSVKALLSRVYLYMNDNENALKCAEEVINDNGGIYRLFTHDEYPSVWGKDFNSESLFEFYFTMSEPSGGSGGEGAPMVYADNVKDWNNLILTKAYLDLLNEDPEDVRHVFPHLPENAVADTLPVAAKGQPKYLIKYPGKSGSVTDAVSTVNPQDNDLCILRLSEVYLNAAEAAFKIGNTEKALTYLNAIVTRANPAKSVTSADLSLERILKERRKELVGEGHAFFDYMRNGKSVDRSGGWHLTMPEDARVIAPSDPRVALPIPQTEIDANPNIVQNPR
# Assays:
# Experiment in all cases: glycan array binding signal (z-score within array); higher = stronger binding
# Conditions in all cases: glycan notation: IUPAC condensed, linker removed
# [1] = target: Fuc(a1-2)Gal(b1-4)[Fuc(a1-3)]GlcNAc(b1-2)Man(a1-3)[Fuc(a1-2)Gal(b1-4)[Fuc(a1-3)]GlcNAc(b1-2)Man(a1-6)]Man(b1-4)GlcNAc(b1-4)[Fuc(a1-6)]GlcNAc
# How it was run: (§1)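 Glycan array data came from 3228 arrays in the Consortium for Functional Glycomics database, and only arrays with an available protein sequence were kept. Glycan names were put into IUPAC-condensed notation, and columns mapping to the same glycan were averaged. The binding signal is a within-array Z-score, averaged across arrays of one protein sequence run at different concentrations or buffers and across linkers. A negative Z-score can be read as non-binding.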
# [2] = target: Fuc(a1-2)Gal(b1-4)[Fuc(a1-3)]GlcNAc(b1-2)[Fuc(a1-2)Gal(b1-4)[Fuc(a1-3)]GlcNAc(b1-4)]Man(a1-3)[Fuc(a1-2)Gal(b1-4)[Fuc(a1-3)]GlcNAc(b1-2)Man(a1-6)]Man(b1-4)GlcNAc(b1-4)GlcNAc
# How it was run: as §1
# [3] = target: Fuc(a1-2)Gal(b1-4)[Fuc(a1-3)]GlcNAc(b1-3)Gal(b1-4)[Fuc(a1-3)]GlcNAc
# How it was run: as §1
# [4] = target: Fuc(a1-2)Gal(b1-4)[Fuc(a1-3)]GlcNAc(b1-3)Gal(b1-4)[Fuc(a1-3)]GlcNAc(b1-3)Gal(b1-4)[Fuc(a1-3)]GlcNAc
# How it was run: as §1
# [5] = target: Fuc(a1-2)Gal(b1-4)[Fuc(a1-3)]GlcNAc(b1-3)GalNAc
# How it was run: as §1
# [6] = target: Fuc(a1-2)Gal(b1-4)[Fuc(a1-3)]GlcNAc(b1-3)[Neu5Ac(a2-6)Gal(b1-4)GlcNAc(b1-6)]Gal(b1-4)Glc
# How it was run: as §1
# [7] = target: Fuc(a1-2)Gal3S(b1-4)GlcNAc
# How it was run: as §1
# [8] = target: Fuc(a1-2)Gal6S(b1-3)GlcNAc
# How it was run: as §1
# [9] = target: Fuc(a1-2)Gal6S(b1-3)GlcNAc6S
# How it was run: as §1
# Fuc(a1-2)Gal6S(b1-4)Glc = target: Fuc(a1-2)Gal6S(b1-4)Glc
# How it was run: as §1
# [10] = target: Fuc(a1-2)Gal6S(b1-4)Glc6S
# How it was run: as §1
# Fuc(a1-2)[Gal(a1-3)]Gal = target: Fuc(a1-2)[Gal(a1-3)]Gal
# How it was run: as §1
# [11] = target: Fuc(a1-2)[Gal(a1-3)]Gal(b1-3)GalNAc
# How it was run: as §1
# [12] = target: Fuc(a1-2)[Gal(a1-3)]Gal(b1-3)GalNAc(b1-3)Gal(a1-4)Gal(b1-4)Glc
# How it was run: as §1
# [13] = target: Fuc(a1-2)[Gal(a1-3)]Gal(b1-3)GlcNAc
# How it was run: as §1
# [14] = target: Fuc(a1-2)[Gal(a1-3)]Gal(b1-3)GlcNAc(b1-2)Man(a1-3)[Fuc(a1-2)[Gal(a1-3)]Gal(b1-3)GlcNAc(b1-2)Man(a1-6)]Man(b1-4)GlcNAc(b1-4)GlcNAc
# How it was run: as §1
# [15] = target: Fuc(a1-2)[Gal(a1-3)]Gal(b1-3)GlcNAc(b1-2)Man(a1-3)[Fuc(a1-2)[Gal(a1-3)]Gal(b1-3)GlcNAc(b1-2)Man(a1-6)]Man(b1-4)GlcNAc(b1-4)[Fuc(a1-6)]GlcNAc
# How it was run: as §1
# [16] = target: Fuc(a1-2)[Gal(a1-3)]Gal(b1-3)GlcNAc(b1-3)GalNAc
# How it was run: as §1
# [17] = target: Fuc(a1-2)[Gal(a1-3)]Gal(b1-3)GlcNAc(b1-6)GalNAc
# How it was run: as §1
# [18] = target: Fuc(a1-2)[Gal(a1-3)]Gal(b1-4)Glc
# How it was run: as §1
# [19] = target: Fuc(a1-2)[Gal(a1-3)]Gal(b1-4)GlcNAc
# How it was run: as §1
# [20] = target: Fuc(a1-2)[Gal(a1-3)]Gal(b1-4)GlcNAc(b1-2)Man
# How it was run: as §1
# [21] = target: Fuc(a1-2)[Gal(a1-3)]Gal(b1-4)GlcNAc(b1-2)Man(a1-3)[Fuc(a1-2)[Gal(a1-3)]Gal(b1-4)GlcNAc(b1-2)Man(a1-6)]Man(b1-4)GlcNAc(b1-4)GlcNAc
# How it was run: as §1
# [22] = target: Fuc(a1-2)[Gal(a1-3)]Gal(b1-4)GlcNAc(b1-2)Man(a1-3)[Fuc(a1-2)[Gal(a1-3)]Gal(b1-4)GlcNAc(b1-2)Man(a1-6)]Man(b1-4)GlcNAc(b1-4)[Fuc(a1-6)]GlcNAc
# How it was run: as §1
# [23] = target: Fuc(a1-2)[Gal(a1-3)]Gal(b1-4)GlcNAc(b1-3)GalNAc
# How it was run: as §1
# [24] = target: Fuc(a1-2)[Gal(a1-3)]Gal(b1-4)GlcNAc(b1-3)[Fuc(a1-2)[Gal(a1-3)]Gal(b1-4)GlcNAc(b1-6)]GalNAc
# How it was run: as §1
# [25] = target: Fuc(a1-2)[Gal(a1-3)]Gal(b1-4)GlcNAc(b1-6)GalNAc
# How it was run: as §1
# [26] = target: Fuc(a1-2)[Gal(a1-3)]Gal(b1-4)[Fuc(a1-3)]Glc
# How it was run: as §1
# [27] = target: Fuc(a1-2)[Gal(a1-3)]Gal(b1-4)[Fuc(a1-3)]GlcNAc
# How it was run: as §1
# [28] = target: Fuc(a1-2)[Gal(a1-3)]Gal(b1-4)[Fuc(a1-3)]GlcNAc(b1-3)GalNAc
# How it was run: as §1
# [29] = target: Fuc(a1-2)[Gal(a1-4)]Gal(b1-4)GlcNAc
# How it was run: as §1
# [30] = target: Fuc(a1-2)[GalNAc(a1-3)]Gal
# How it was run: as §1
# [31] = target: Fuc(a1-2)[GalNAc(a1-3)]Gal(b1-3)GalNAc(a1-3)[Fuc(a1-2)]Gal(b1-4)GlcNAc
# How it was run: as §1
# [32] = target: Fuc(a1-2)[GalNAc(a1-3)]Gal(b1-3)GalNAc(b1-3)Gal(a1-4)Gal(b1-4)Glc
# How it was run: as §1
# [33] = target: Fuc(a1-2)[GalNAc(a1-3)]Gal(b1-3)GlcNAc
# How it was run: as §1
# [34] = target: Fuc(a1-2)[GalNAc(a1-3)]Gal(b1-3)GlcNAc(b1-2)Man(a1-3)[Fuc(a1-2)[GalNAc(a1-3)]Gal(b1-3)GlcNAc(b1-2)Man(a1-6)]Man(b1-4)GlcNAc(b1-4)GlcNAc
# How it was run: as §1
# [35] = target: Fuc(a1-2)[GalNAc(a1-3)]Gal(b1-3)GlcNAc(b1-2)Man(a1-3)[Fuc(a1-2)[GalNAc(a1-3)]Gal(b1-3)GlcNAc(b1-2)Man(a1-6)]Man(b1-4)GlcNAc(b1-4)[Fuc(a1-6)]GlcNAc
# How it was run: as §1
# [36] = target: Fuc(a1-2)[GalNAc(a1-3)]Gal(b1-3)GlcNAc(b1-3)GalNAc
# How it was run: as §1
binder,measurement,setting,value
B1,glycan array binding signal (z-score),[1],0.234
same,glycan array binding signal (z-score),[2],0.434
same,glycan array binding signal (z-score),[3],0.511
same,glycan array binding signal (z-score),[4],1.49
same,glycan array binding signal (z-score),[5],2.06
same,glycan array binding signal (z-score),[6],-0.422
same,glycan array binding signal (z-score),[7],-0.03
same,glycan array binding signal (z-score),[8],0.159
same,glycan array binding signal (z-score),[9],0.438
same,glycan array binding signal (z-score),Fuc(a1-2)Gal6S(b1-4)Glc,1.05
same,glycan array binding signal (z-score),[10],-0.019
same,glycan array binding signal (z-score),Fuc(a1-2)[Gal(a1-3)]Gal,-0.142
same,glycan array binding signal (z-score),[11],0.2
same,glycan array binding signal (z-score),[12],-0.317
same,glycan array binding signal (z-score),[13],-0.174
same,glycan array binding signal (z-score),[14],-0.085
same,glycan array binding signal (z-score),[15],-0.453
same,glycan array binding signal (z-score),[16],-0.908
same,glycan array binding signal (z-score),[17],-0.925
same,glycan array binding signal (z-score),[18],-0.524
same,glycan array binding signal (z-score),[19],-0.273
same,glycan array binding signal (z-score),[20],-0.177
same,glycan array binding signal (z-score),[21],0.11
same,glycan array binding signal (z-score),[22],-0.327
same,glycan array binding signal (z-score),[23],-0.271
same,glycan array binding signal (z-score),[24],0.131
same,glycan array binding signal (z-score),[25],-0.764
same,glycan array binding signal (z-score),[26],-0.955
same,glycan array binding signal (z-score),[27],-0.173
same,glycan array binding signal (z-score),[28],-0.751
same,glycan array binding signal (z-score),[29],-0.001
same,glycan array binding signal (z-score),[30],-0.294
same,glycan array binding signal (z-score),[31],0.216
same,glycan array binding signal (z-score),[32],0.699
same,glycan array binding signal (z-score),[33],-0.561
same,glycan array binding signal (z-score),[34],-0.288
same,glycan array binding signal (z-score),[35],-0.511
same,glycan array binding signal (z-score),[36],0.521

# — the supplement of paper PMC8728848
